# Measurements published in patent publication US20250213531A1, “5-MEO-DTM FOR THE TREATMENT OF BIPOLAR DISORDER” (GH RESEARCH IRELAND LIMITED, priority 2022, published 2025).
# System: patients with treatment-resistant major depressive disorder (TRD)
# Assay: Phase 1/2 clinical trial of inhaled 5-MeO-DMT in patients with TRD
# Settings: for MADRS Suicidal Thoughts item score, sum of patients: baseline 8; for MADRS Inner Tension item score, sum of patients / BPRS Emotional Withdrawal item score, sum of patients: baseline 13; for MADRS Concentration Difficulties item score, sum of patients / MADRS Inability to Feel item score, sum of patients / MADRS Lassitude item score, sum of patients / MADRS Pessimistic Thoughts item score, sum of patients: baseline 16; for BPRS Blunted Affect item score, sum of patients: baseline 11; for BPRS Guilt Feelings item score, sum of patients: baseline 18; for MADRS Reduced Sleep item score, sum of patients: baseline 12; for BPRS Anxiety item score, sum of patients: baseline 25; for patients with at least one ADR: n=4
# [1] = 12 mg n=4, 3 hours, baseline 14
smiles,measurement,setting,value
COc1ccc2[nH]cc(CCN(C)C)c2c1 [5-MeO-DMT],"MADRS Suicidal Thoughts item score, sum of patients","12 mg n=4, 2 hours",3
same,"MADRS Inner Tension item score, sum of patients","12 mg n=4, 2 hours",2
same,"MADRS Concentration Difficulties item score, sum of patients","12 mg n=4, 2 hours",7
same,"MADRS Inability to Feel item score, sum of patients","12 mg n=4, 2 hours",9
same,"MADRS Lassitude item score, sum of patients","12 mg n=4, 2 hours",10
same,"MADRS Pessimistic Thoughts item score, sum of patients","12 mg n=4, 2 hours",8
same,"BPRS Blunted Affect item score, sum of patients","12 mg n=4, 3 hours",8
same,"BPRS Tension item score, sum of patients",[1],9
same,BPRS Tension percentage improvement,[1],36%
same,"BPRS Guilt Feelings item score, sum of patients","12 mg n=4, 3 hours",9
same,"MADRS Suicidal Thoughts item score, sum of patients","12 mg n=4, day 1",5
same,"BPRS Blunted Affect item score, sum of patients","12 mg n=4, day 1",6
same,"MADRS Reduced Sleep item score, sum of patients","12 mg n=4, day 1",10
same,"BPRS Emotional Withdrawal item score, sum of patients","12 mg n=4, day 1",8
same,"MADRS Inner Tension item score, sum of patients","12 mg n=4, day 1",3
same,"BPRS Tension item score, sum of patients","12 mg n=4, day 1, baseline 14",6
same,"MADRS Concentration Difficulties item score, sum of patients","12 mg n=4, day 1",2
same,"MADRS Inability to Feel item score, sum of patients","12 mg n=4, day 1",1
same,"MADRS Lassitude item score, sum of patients","12 mg n=4, day 1",0
same,"MADRS Pessimistic Thoughts item score, sum of patients","12 mg n=4, day 1",7
same,"BPRS Guilt Feelings item score, sum of patients","12 mg n=4, day 1",5
same,"BPRS Anxiety item score, sum of patients","12 mg n=4, day 1",6
same,"MADRS Suicidal Thoughts item score, sum of patients","12 mg n=4, day 7",7
same,"BPRS Blunted Affect item score, sum of patients","12 mg n=4, day 7",5
same,"MADRS Reduced Sleep item score, sum of patients","12 mg n=4, day 7",6
same,"BPRS Emotional Withdrawal item score, sum of patients","12 mg n=4, day 7",6
same,"MADRS Inner Tension item score, sum of patients","12 mg n=4, day 7",5
same,"BPRS Tension item score, sum of patients","12 mg n=4, day 7, baseline 14",6
same,"MADRS Concentration Difficulties item score, sum of patients","12 mg n=4, day 7",3
same,"MADRS Inability to Feel item score, sum of patients","12 mg n=4, day 7",1
same,"MADRS Lassitude item score, sum of patients","12 mg n=4, day 7",3
same,"MADRS Pessimistic Thoughts item score, sum of patients","12 mg n=4, day 7",8
same,"BPRS Guilt Feelings item score, sum of patients","12 mg n=4, day 7",5
same,"BPRS Anxiety item score, sum of patients","12 mg n=4, day 7",6
same,"changes in safety laboratory analyses, vital signs, psychiatric safety assessments or measures of cognitive function",Part A and Part B,No clinically significant changes
same,ADR severity and outcome,"Part A, 12 mg and 18 mg groups",mild and resolved spontaneously
same,patients with at least one ADR,"Part A, 12 mg single dose",3 of 4
same,patients with at least one ADR,"Part A, 18 mg single dose",3 of 4
